Measurements taken from PubChem BioAssay AID1466 (National Center for Advancing Translational Sciences (NCATS), 2008).
Hit rate of the full screen: of about 200,000 compounds, about 10 (0.005%) were called active. Inconclusive means that the source gave no clear call. Such entries were picked first, then a sample of the others. The call rests on the fitted dose curve; in most records, active means well fitted inhibition curve with a large enough effect; inconclusive means small, poorly fitted or top-dose-only effect, or effect the other way, or another doubt; inactive means no such curve, though single readings can be large or run the other way. Potencies of inconclusive entries are left out as doubtful fits.

The compounds below were run against Lysosomal alpha-glucosidase (Homo sapiens) (UniProt P10253) (assay: qHTS Assay for Inhibitors of Human alpha-Glucosidase as a Potential Chaperone Treatment of Pompe Disease). Settings: purified human GAA, 4-MU-alpha-glucoside fluorescence; activity change, negative = inhibition: at 76.9 µM (top of the series) unless noted.
Procedure, shortened: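 AC50 values come from Hill fits of compound titrations (up to 77 uM) against 4 nM human enzyme. Substrate 4-methylumbelliferyl-alpha-D-pyranoside at 400 uM, pH 5.0 citrate buffer, 20 min room temperature; fluorescence Ex 365/Em 440 after alkaline stop.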
Potency means the concentration at half of the fitted maximal effect; tags describe the fitted curve by direction and shape.
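Wherever activity change, negative = inhibition is given: plate controls were uninhibited enzyme wells for no effect and no-enzyme background for full effect.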

SMILES	activity change, negative = inhibition	Potency
O=C1CC(N2CCN(c3ncccn3)CC2)C(=O)N1CCc1ccccc1 (stereo unspecified)	inconclusive: 20.7% [activator]	–
O=C(c1cc(-c2ccco2)nn1-c1cccc(Cl)c1)N1CCCCC1	–	inconclusive [inhibitor, partial curve]
CCCCCCCCC(=O)Nc1cc(C)ccc1OC	–	inconclusive [inhibitor, single point]
CCOC(=O)C1(CC2CCCCO2)CCN(S(=O)(=O)c2ccsc2)CC1 (stereo unspecified)	inconclusive: 13.3% [activator]	–
CCCc1nc2ccc(NC(=O)NCCC(=O)OCC)cc2c(=O)n1Cc1cccc(Cl)c1	–	inconclusive [inhibitor, single point]
Cc1c(C2C(C#N)=C(N)N(c3cccc([N+](=O)[O-])c3)C3=C2C(=O)CCC3)cnn1C (stereo unspecified)	inconclusive: 15.9% [activator]	–
COc1ccc2c(c1)C(c1ccc([N+](=O)[O-])cc1)=NNC(c1ccco1)=N2	inconclusive: -15.2% [inhibitor]	–
Cc1cc(C)c(C#N)c(SCC(=O)Nc2ccc3c(c2)OCO3)n1	–	inconclusive [inhibitor, single point]
c1n[nH]c(NC2=NCCC2)n1	–	inconclusive [inhibitor, single point]
O=C(CC1CCCCC1)Nc1nc2ccccc2s1	inconclusive: 13.3% [activator]	–
COc1ccc(CN(C)CC(=O)Nc2ccccc2C(F)(F)F)cc1	–	inconclusive [inhibitor, single point]
COCc1ccc(CN2CCCC(CO)(Cc3cccc(Cl)c3)C2)o1 (stereo unspecified)	inconclusive: 5.83% [activator]	–
COc1ccc(CC(=O)Nc2ccc(S(=O)(=O)Nc3nccc(C)n3)cc2)cc1	–	inconclusive [inhibitor, single point]
Cc1ccc(C(=O)NNc2nc3ccccc3nc2C(F)(F)F)cc1	inactive: -3.48%	–
CC(C)OCCCNC(=O)Cn1ncc2c(=O)oc3ccccc3c21	–	inconclusive [inhibitor, partial curve, poor fit]
Cc1cc(C)cc(OCC(=O)Nc2ccc(N3CCN(S(C)(=O)=O)CC3)cc2)c1	–	inconclusive [activator, full curve]
CC(=O)Nc1ccc(S(=O)(=O)NCCC(=O)NCCc2ccc(F)cc2)cc1	–	inconclusive [inhibitor, full curve, poor fit]
Cc1cccc(NC(=S)N2CCN(S(=O)(=O)c3cccc(F)c3)CC2)c1	inconclusive: -16.7% [inhibitor]	–
CCNC(=O)c1sc2cc(C)ccc2c1Cl	–	inconclusive [inhibitor, partial curve, poor fit]
O=C(NNC(=O)c1cc2cc(Br)ccc2oc1=O)c1ccc(O)cc1O	–	inconclusive [inhibitor, single point]
CCOC(=O)C1CCN(S(=O)(=O)c2cc(Br)cc3c2N(C(=O)C2CC2)CC3)CC1	–	inconclusive [inhibitor, partial curve]

SMILES	activity change, negative = inhibition	Potency
Cc1cc(C)c(C#N)c(SCc2ccccc2C)n1	–	inconclusive [inhibitor, partial curve, poor fit]
CCCN1C=CC(=C/C=C(\C#N)C(=O)OCC)C=C1	–	inconclusive [inhibitor, single point]
COC(=O)CSc1nc2c(c(=O)n(C)c(=O)n2C)n1CCC(C)C	–	inconclusive [inhibitor, single point]
COc1cc(OC)nc(-n2ncc(Br)c(Br)c2=O)n1	–	inconclusive [inhibitor, single point]
COc1cc(C)c(S(=O)(=O)N2CCOCC2)c(C)c1C	inactive: 5.9%	–
CC1OC(Oc2ccc3ccc(=O)oc3c2-c2c(O)ccc3cc(Oc4ccc5ccc(=O)oc5c4)c(=O)oc23)C(O)C(O)C1O (stereo unspecified)	–	inconclusive [activator, partial curve]
COC(=O)c1cc(COC(=O)c2ccc(OC)c(S(=O)(=O)N3CCCC3)c2)oc1C	–	inconclusive [inhibitor, partial curve]
Cc1ccc(C(=O)C(OC(=O)c2c(C)cc(=O)oc2C)c2ccccc2)cc1 (stereo unspecified)	–	inconclusive [inhibitor, single point]
CCOC(=O)c1ccc(N/N=C/c2cc(Br)cc([N+](=O)[O-])c2O)cc1	–	inconclusive [inhibitor, single point]
CC(C)NC(=O)C1CCN(C2CCN(Cc3cn[nH]c3-c3ccccc3)CC2)CC1	–	inconclusive [inhibitor, full curve, poor fit]
O=C(Cn1cnc2ccccc2c1=O)c1cccs1	–	inconclusive [inhibitor, single point]
CCOc1cccc(/C=N/N2C(=O)CSC2=S)c1O	inconclusive: 13.7% [activator]	–
c1nc(N2CCC3(CC2)OCCO3)c2c3c(sc2n1)CCCC3	inconclusive: -15.3% [inhibitor]	–
CCC1CCCCN1C(=O)COC(=O)c1cc2ccccc2cc1O (stereo unspecified)	inconclusive: -17.8% [inhibitor]	–
Cc1ccc(NC(=S)NN(C)c2cc(C)nc(C)n2)cc1	–	inconclusive [inhibitor, single point]
CCN1/C(=C/c2cc[n+](C)cc2)C=Cc2cc(C)ccc21	–	inconclusive [inhibitor, single point]
CCCCNC(=O)NC1(C(F)(F)F)Oc2ccccc2O1	–	inconclusive [inhibitor, single point]
CCOc1ccc(NC(=O)CN2CCN(S(=O)(=O)c3ccc(Cl)cc3)CC2)cc1	–	inconclusive [inhibitor, partial curve]
CCC(Sc1nc(-c2ccccc2)cc(=O)[nH]1)C(=O)O (stereo unspecified)	–	inconclusive [inhibitor, single point]
CCC(CC)c1nnc(NC(=O)c2c(C)nn(Cc3ccccc3Cl)c2C)s1	–	inconclusive [inhibitor, single point]
